Among all 310,000 compounds or so, about 2,200 (0.71%) showed an effect of 50% or more. Effects have a minus sign here. The list shows a part of the results.

The target of the experiment is human ether-à-go-go-related gene (hERG) potassium channel (human, UniProt Q12809). Put plainly: primary screen, population patch clamp on CHO cells stably expressing hERG.
Sequence of human ether-à-go-go-related gene (hERG) potassium channel (Q12809 whole entry, looked up): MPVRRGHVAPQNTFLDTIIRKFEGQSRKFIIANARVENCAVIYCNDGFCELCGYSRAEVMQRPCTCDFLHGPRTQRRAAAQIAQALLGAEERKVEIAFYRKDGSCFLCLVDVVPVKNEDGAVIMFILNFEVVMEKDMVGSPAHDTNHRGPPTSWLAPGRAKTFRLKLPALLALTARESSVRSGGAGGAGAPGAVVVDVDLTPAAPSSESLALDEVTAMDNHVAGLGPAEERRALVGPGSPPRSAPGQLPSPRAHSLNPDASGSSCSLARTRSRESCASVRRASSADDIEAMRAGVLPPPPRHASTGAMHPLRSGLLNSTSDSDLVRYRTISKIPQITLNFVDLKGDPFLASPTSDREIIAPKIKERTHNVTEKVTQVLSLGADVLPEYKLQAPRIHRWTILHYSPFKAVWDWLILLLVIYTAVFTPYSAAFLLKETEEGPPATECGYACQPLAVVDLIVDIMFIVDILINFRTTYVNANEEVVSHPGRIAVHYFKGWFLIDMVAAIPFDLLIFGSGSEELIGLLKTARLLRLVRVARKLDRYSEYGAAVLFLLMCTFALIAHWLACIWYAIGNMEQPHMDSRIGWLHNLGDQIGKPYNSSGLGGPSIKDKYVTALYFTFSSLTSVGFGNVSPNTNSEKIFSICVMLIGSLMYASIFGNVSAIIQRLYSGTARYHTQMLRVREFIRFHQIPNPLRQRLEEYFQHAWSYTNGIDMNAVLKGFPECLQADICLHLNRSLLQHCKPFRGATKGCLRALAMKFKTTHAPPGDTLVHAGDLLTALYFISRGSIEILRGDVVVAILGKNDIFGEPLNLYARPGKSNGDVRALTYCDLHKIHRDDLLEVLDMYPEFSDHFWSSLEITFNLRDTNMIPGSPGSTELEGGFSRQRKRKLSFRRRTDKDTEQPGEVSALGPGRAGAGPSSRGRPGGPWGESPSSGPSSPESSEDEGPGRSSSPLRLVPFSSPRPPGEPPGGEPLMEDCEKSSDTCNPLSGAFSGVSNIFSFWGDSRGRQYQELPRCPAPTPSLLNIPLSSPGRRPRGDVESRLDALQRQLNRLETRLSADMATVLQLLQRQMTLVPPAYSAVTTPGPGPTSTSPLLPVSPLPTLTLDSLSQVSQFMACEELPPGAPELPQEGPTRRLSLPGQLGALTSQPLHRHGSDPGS
For the compound `CC(=O)c1cnc(Oc2cc(Cl)ccc2Cl)nc1C`, the “hERG current change (%, negative = inhibition) at 1uM” value was 9.91%. In the case of `CCOC(=O)C(CCCCCCC(NC(C)=O)(C(=O)OCC)C(=O)OCC)(NC(C)=O)C(=O)OCC` it was 7.87%; in that of `COC(=O)CSc1nc2ccccn2c(=O)c1C=O`, 12.3%. On to `COc1ccc(OC)c(Nc2nc(N)nc(-c3cc4ccccc4o3)n2)c1`, for which the “hERG current change (%, negative = inhibition) at 1uM” value was -1.1%. In the case of `Cc1ccc(O)c(Nc2c3ccccc3nc3ccccc23)c1` it was -7.15%; in that of `O=C1CCC/C(=N\NC(=O)c2ccc(COc3cccc4cccnc34)cc2)C1`, 10.9%; in that of `O=C(Nc1ccc(Cn2ccnc2)cc1)c1cccc(C(F)(F)F)c1`, 7.9%. The value for `CNS(=O)(=O)c1ccc2c3c(cccc13)C(=O)N2C` was 7.83%; that for `CN1CCC(NCCC(c2ccc(F)cc2)c2ccc(Cl)cc2)CC1` (stereo not drawn) was 2.44%.

With `NS(=O)(=O)c1cccn1-c1ncc(C(F)(F)F)cc1Cl`, the “hERG current change (%, negative = inhibition) at 1uM” value was 5.67%.

With `Cc1cccc(OCc2nnc(SCc3nc4ccccc4c(=O)[nH]3)o2)c1`, the “hERG current change (%, negative = inhibition) at 1uM” value is listed as 11.1%. The value for `CCn1cc(CN2CCC(C(=O)Nc3cccc(-c4cccc(Cl)c4)c3)CC2)c(C)n1` was -39.2%; that for `COc1ccc(OC)c(-n2nnnc2SCC(=O)N2CCN(C(=O)c3ccco3)CC2)c1` was 3.31%. The value for `CCOc1ccc(NC(=O)CNC(=O)COc2ccccc2)cc1` was 7.09%. The value for `Cc1cc(C)c(C(=O)/C=C/c2cccc3ccccc23)c(=O)[nH]1` was -13.9%; that for `O=c1cc(N2CCCCCC2)[nH]c(=O)n1-c1ccc(Cl)cc1` was 12.6%; that for `CC(OC(=O)c1ccc2c(=O)n3c(nc2c1)CCCCC3)C(=O)Nc1ccc(Cl)cn1` (stereo not drawn) was 2.05%. On to `Cn1c(SCC(=O)c2ccc(F)cc2)ncc(C(=O)Nc2ccccc2)c1=O`, for which the “hERG current change (%, negative = inhibition) at 1uM” value worked out at 11.5%. On to `CCCn1c(SCC(=O)Nc2cccc(C)n2)nc2c1c(=O)n(C)c(=O)n2C`, for which the “hERG current change (%, negative = inhibition) at 1uM” value was -2.62%. In the case of `NC1=NC(=O)/C(=C/c2cccc(-c3ccc(S(N)(=O)=O)cc3)c2)S1` it was 7.47%.

`C#CCSc1nc(C)cc(C(=O)OCC)c1C#N`: the “hERG current change (%, negative = inhibition) at 1uM” value came out at 9.89%. As for `COc1cccc(CN(C)C(=O)c2ccc(NS(=O)(=O)c3ccc4[nH]c(=O)[nH]c4c3)cc2)c1OC`, the “hERG current change (%, negative = inhibition) at 1uM” value was -1.53%. The value for `OC(Cn1cncn1)(c1ccccc1)c1ccccc1` was 7.57%; that for `Cc1ccc(CS(=O)Cc2ccc(C(=O)N3CCOCC3)o2)cc1` (stereo not drawn) was 4.17%. The value for `CCCn1cc(S(=O)(=O)c2ccc(OC)cc2)c(=O)c2cc(OCC)ccc21` was 12%. On to `CCOC(=O)c1c(/N=C/C2C(=O)NC(=O)NC2=O)sc2c1CCC2`, for which the “hERG current change (%, negative = inhibition) at 1uM” value was determined as 6.41%. The value for `CCN(CC)S(=O)(=O)c1cc(C(=O)Oc2cccc(-c3cnc4ccccc4n3)c2)ccc1OC` was 10.5%; that for `CCC(CC)C(=O)Nc1ccncc1` was 15.9%. In the case of `N#Cc1c(-c2ccc(Cl)cc2)nc2n(c1=O)CCCS2` it was 7.72%. In the case of `CCCCS(=O)CC(CS(=O)CCCC)OC(=O)c1ccccc1` (stereo not drawn) it was -1.49%; in that of `CC(C)(C)c1ccc(-c2noc(CCC(=O)NCC3CCCO3)n2)cc1` (stereo not drawn), 1.78%; in that of `COc1ccc(S(=O)(=O)N(Cc2nc3ccccc3c(=O)[nH]2)C2CCCC2)cc1`, 7.62%. As to `O=C(c1ccccc1Sc1ccccc1[N+](=O)[O-])N1CCCCC1`, the “hERG current change (%, negative = inhibition) at 1uM” value was determined as 0.669%. In the case of `CCCCc1ccc(CC(=O)O)cc1` it was 10.9%; in that of `CCCc1nc2oc3c(NCCCN(C)C)ncnc3c2c2c1CCCC2`, 10.7%; in that of `CC(=O)N1CCN(c2ccc(S(=O)(=O)NCCN(C(C)C)C(C)C)cc2[N+](=O)[O-])CC1`, 13.9%. The value for `CCOc1ccc(C(C)=O)cc1COc1ccc(-n2cnnn2)cc1` was 6.12%; that for `CCOC(=O)CNc1ccc(OC(F)(F)F)cc1` was 4.77%; that for `COC(=O)c1cn(C(=O)/C=C/c2ccc(OC)c(OC)c2)c2ccccc12` was 12.7%. The value for `O=C(CNC(=O)c1ccccc1)NCc1ccc(Cl)cc1` was 16.4%; that for `COCCCNC(=O)CSc1nc2c(sc(=S)n2-c2cc(Cl)ccc2OC)c(=O)[nH]1` was 15.2%; that for `Cc1ccc(C(CNS(=O)(=O)c2ccc(Br)cc2)N2CCN(C)CC2)cc1` (stereo not drawn) was -18.7%.

For the compound `COc1cccc(NC(=O)c2nnn(Cc3ccc(Br)cc3F)c2N)c1`, the “hERG current change (%, negative = inhibition) at 1uM” value amounted to 9.85%. Regarding `COc1cc(/C=C/C(=O)OCC(=O)Nc2cccc(Oc3ccccc3)c2)ccc1O`, the “hERG current change (%, negative = inhibition) at 1uM” value was 4.94%. In the case of `CC(=O)c1c(C)[nH]c(C(=O)OCC(=O)Nc2cc(S(=O)(=O)N3CCCC3)ccc2Cl)c1C`, the “hERG current change (%, negative = inhibition) at 1uM” value is 15.6%. In the case of `COc1ccc(CCNC(=O)C2Cc3ccccc3C(=O)O2)cc1` (stereo not drawn) it was -1.47%.

Turning to `CCOC(=O)C1=C(O)CSC1=Nc1ccc(Cl)cc1`, the “hERG current change (%, negative = inhibition) at 1uM” value is on record as 11.9%. Consider `O=C(Nc1nc(-c2ccccc2)cs1)NC1CCCCC1`, for which the “hERG current change (%, negative = inhibition) at 1uM” value stood at 4.35%. The value for `CC(NC(=O)c1ccccc1)c1nc2ccccc2n1Cc1ccccc1F` (stereo not drawn) was 14.7%; that for `C=CCNC(=O)c1ccc(N(Cc2ccc(Cl)cc2)S(C)(=O)=O)cc1` was 5.31%; that for `CCOc1nc(-c2ccc(OC)cc2)ccc1-c1noc(-c2cc(OC)c(OC)c(OC)c2)n1` was 4.92%.

`CC(/C=C/c1ccccc1)=N\Nc1ccccc1[N+](=O)[O-]`: the “hERG current change (%, negative = inhibition) at 1uM” value is 16.6%. In the case of `O=C(Cc1ccc(N2CCNC2=O)cc1)N1CCCC(Nc2ccc(F)c(F)c2)C1` (stereo not drawn) it was 5.29%; in that of `CC(C)(C)OC(=O)N1Cc2[nH]c3ccccc3c2C[C@@H]1C(=O)O`, 9.62%; in that of `O=C(Nc1ccccc1C(=O)Nc1ccc(Br)cn1)c1ccccc1Cl`, 5.22%. The value for `COc1ccc(C(=O)NC(=S)NNC(=O)c2cnccn2)cc1` was 7.7%; that for `O=C(/C=C/Sc1ncn[nH]1)c1ccc(Cl)cc1` was 4.44%; that for `Fc1ccc(OCc2nc(-c3ccc(Br)o3)no2)c(F)c1` was 7.15%. As to `Cc1nn2c(COc3ccc(NC(=O)C(C)C)cc3)nnc2c2ccccc12`, the “hERG current change (%, negative = inhibition) at 1uM” value is on record as 11.1%. The value for `Cc1nc2ccc(N)cc2c(=O)n1Cc1ccc(Cl)cc1` was 5.92%; that for `CCOc1ccc(CNCc2ccccc2Cl)cc1.Cl` was -42%; that for `COc1ccccc1C(=O)NNC(=O)CN1C(=O)c2ccccc2C1=O` was 13.5%.

For `CN(c1cccc(NS(=O)(=O)c2cccc([N+](=O)[O-])c2)c1)S(C)(=O)=O`, the “hERG current change (%, negative = inhibition) at 1uM” value amounted to 6.56%.

For `CC(NC(=O)COC(=O)C1=COCCO1)C12CC3CC(CC(C3)C1)C2` (stereo not drawn), the “hERG current change (%, negative = inhibition) at 1uM” value came out at 11.1%. On to `Cc1ccc(C(=O)Nc2cccc([N+](=O)[O-])c2)cc1S(=O)(=O)Nc1ccc(C(=O)O)cc1`, for which the “hERG current change (%, negative = inhibition) at 1uM” value was determined as 4.35%.

In the case of `CN1CCN(CC(=O)Nc2ccc(S(=O)(=O)N(C)C)cc2)CC1.O=C(O)C(=O)O`, the “hERG current change (%, negative = inhibition) at 1uM” value amounted to 6.77%. The value for `Cn1cc(C(=O)NC2CCCCC2)c(=O)c2cc(S(=O)(=O)N3CCCC3)ccc21` was 0.024%. For the compound `O=C(COc1ccc(Cl)cc1)NCC(=O)N1CCC2(CC1)NCCc1[nH]cnc12`, the “hERG current change (%, negative = inhibition) at 1uM” value amounted to 13.1%. In the case of `Cc1cc(N2CCN(Cc3cn(C)nc3-c3cccc(Cl)c3)CC2)cc(C)n1` it was -4.6%; in that of `O=C(COc1cccc(Br)c1)NN=C1c2ccccc2-c2ccccc21`, 1.87%.

For `CCCNC(=O)NC(=O)CSc1nnc(-c2c[nH]c3ccccc23)o1`, the “hERG current change (%, negative = inhibition) at 1uM” value is reported as 13.8%. In the case of `O=c1oc2ccccc2c(N2CCCC2)c1CN1CCCC1` it was 10.6%.

Consider `O=C(CC12CC3CC(CC(C3)C1)C2)Nc1cccc2ncccc12`, for which the “hERG current change (%, negative = inhibition) at 1uM” value is on record as -6.16%. In the case of `COc1ccc(C(=O)N2CC3(CC(c4ccc(Cl)cc4)=NO3)C[C@H]2C(=O)NCC(N)=O)cc1` (stereo partly drawn) it was 11.5%; in that of `Nc1ccc(Sc2cnn(-c3ccccc3)c(=O)c2Cl)cc1`, -12%; in that of `Cc1ccc(OCC(=O)NS(=O)(=O)c2ccccc2)cc1`, 6.83%. In the case of `Cc1cccc(CS(=O)(=O)Cc2ccc(C(=O)NCCCN3CCCC3)o2)c1` it was 6.86%; in that of `O=C(NCC(=O)N1CCN(C/C=C/c2ccccc2)CC1)c1ccc(OC(F)F)cc1`, -50.4%. In the case of `COC(=O)Cn1cccc1C(=O)c1ccccc1` it was -0.447%; in that of `Cc1c(C(=O)OC2CCCCC2)[nH]c2c1C(=O)CC(C)(C)C2`, -0.774%; in that of `COc1cc(C(=O)Nc2nnc(S(=O)(=O)N3CCCCCC3)s2)cc(OC)c1OC`, 3.09%. For `CCOC(=O)c1ccc(S(=O)(=O)N2CCN(CCC#N)CC2)cc1`, the “hERG current change (%, negative = inhibition) at 1uM” value is listed as -8.75%. The value for `O=[N+]([O-])c1ccc(CSc2nnc(Cc3ccccc3)o2)cc1` was 7.27%; that for `CCOc1ccc(NC(=O)CC2C(=O)N(c3ccccc3)C(=S)N2Cc2ccccn2)cc1` (stereo not drawn) was 11.5%. The value for `CCCCCC1=CCC/C1=N\NC(=O)c1ccc2c(c1)OCO2` was 1.99%; that for `Cc1nnc(NC(=O)CSc2nnc(C)n2-c2ccc(F)cc2)s1` was 7.7%. The value for `O=C(COc1cccc2cccnc12)N/N=C/c1cccn1-c1ccc(F)cc1` was 3.92%.

The values above are taken from paper PMC4336329 (PLoS ONE, 2015).
